Among the data in the supplement of paper PMC10126150 are switch fluorescence ratio values, retold here.

The data set concerns ATP. As to the kind of experiment: switch fluorescence ratio, 500 uM ATP over buffer (Cy3 cluster intensity, sum of 5 cycles each) (fold (ratio)); higher = stronger signal-on switching upon ATP binding; sequences stand for … in TCGTCGGCAGCGTCAGATGTGTATAAGAGACAGTTTTTTTTTTTTTTTTTTTTTTTTT…TC. As to conditions: aptamer strand: ATP DNA aptamer (quencher-CACCTGGGGGAGTATTGCGGAGGAAGG + anchor), 100 nM annealed; ATP concentration: 500 uM; one replicate. An outline of the steps: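 Values give the fluorescence ratio for each switch-domain sequence, averaged from per-cluster ratios of summed target-cycle to summed buffer-cycle Cy3 intensity. The Cy3-labelled switching-strand clusters sat on a modified Illumina MiSeq flow-cell, were annealed to 100 nM quencher-labelled ATP aptamer, and were imaged in selection buffer, then after 15 min with 500 uM ATP at 22 °C. Five cycles ran with NaOH stripping and re-annealing between them, and clusters outside 100-1000 RFU were excluded.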

Sequences with one replicate were seen in a single cluster, so their values are uncertain.
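Also: ATP exposure 15 min at 22 °C before imaging.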

Take GAATTGATTA: the switch fluorescence ratio was determined as 0.984.

Regarding CGCAACCATT, the switch fluorescence ratio is 1.13.

For the sequence CTCGTTTGTC, the switch fluorescence ratio was 1.05.

For the sequence GCCAAGAGCT, the switch fluorescence ratio came out at 1.03.

As for TAAGATTCAT, the switch fluorescence ratio was 0.962.

CGTCTATTGG: the switch fluorescence ratio was determined as 1.03.

On to TTCTGTAGGT, for which the switch fluorescence ratio worked out at 1.05.

As to ATTAGGACTC, the switch fluorescence ratio was 0.994.

In the case of CCACTAGGGT, the switch fluorescence ratio was 1.1.

As to GGGAACGTGA, the switch fluorescence ratio came out at 0.984.

Take CAGTCAAGGC: the switch fluorescence ratio amounted to 1.31.

As for CATAAGGGCG, the switch fluorescence ratio is 1.04.

Take GAGCTTAATC: the switch fluorescence ratio stood at 1.01.

For TGTTCCCGGC, the switch fluorescence ratio is 1.03.

In the case of ACTTATACTG, the switch fluorescence ratio was found to be 1.12.

In the case of CTAAGCAATG, the switch fluorescence ratio came out at 2.33.

As for CCCCAATGTG, the switch fluorescence ratio came out at 4.35.

Turning to AGAATGGCA, the switch fluorescence ratio came out at 1.07.

With CTAATGTGTA, the switch fluorescence ratio was determined as 0.979.

In the case of CGTCATAAAA, the switch fluorescence ratio turned out to be 1.02.

With TGGGTACGTT, the switch fluorescence ratio was found to be 0.944.

As for CGCTGAACAG, the switch fluorescence ratio is 1.05.

For GGCGTGGCAG, the switch fluorescence ratio worked out at 1.02.

Turning to TATGAGAGTT, the switch fluorescence ratio is 1.02.

With TTAGTTTCAC, the switch fluorescence ratio turned out to be 0.975.

Consider TTATTCAGAC, for which the switch fluorescence ratio was 0.96.

In the case of CGGGAGGGCA, the switch fluorescence ratio turned out to be 0.953.

Turning to TCTCCGTACG, the switch fluorescence ratio came out at 2.86.

ATGGCGGAC: the switch fluorescence ratio worked out at 0.985.

TACGGTGATG: the switch fluorescence ratio stood at 0.998.

For GTAGACACAA, the switch fluorescence ratio was found to be 1.03.

Turning to ATCGAGGGCC, the switch fluorescence ratio was determined as 1.04.

For GTTATGGGAG, the switch fluorescence ratio worked out at 1.

Turning to TATGGATTTG, the switch fluorescence ratio came out at 1.01.

Take CATTCTCGGC: the switch fluorescence ratio was 1.1.

As for GTTCTAAAAC, the switch fluorescence ratio was determined as 1.01.

Consider TTGCGTAGGA, for which the switch fluorescence ratio is 1.02.

Regarding GCTACCAAC, the switch fluorescence ratio came to 1.3.

Take AACACCTGCT: the switch fluorescence ratio came to 0.998.

Regarding TGCAAGTTAG, the switch fluorescence ratio worked out at 1.02.

Regarding GCATGTGCAT, the switch fluorescence ratio amounted to 1.01.

As to GCTTATGCTA, the switch fluorescence ratio was 1.02.

With ATGTCTAGTC, the switch fluorescence ratio amounted to 0.979.

Turning to GAAAAAATAT, the switch fluorescence ratio stood at 0.951.

Consider TACACGCC, for which the switch fluorescence ratio is 1.04.

With TCCAAGCAAA, the switch fluorescence ratio is 0.981.

Turning to TGAGGAAAAC, the switch fluorescence ratio turned out to be 1.01.

Turning to CGGACTAGGA, the switch fluorescence ratio came out at 1.

On to GGCAAATCGA, for which the switch fluorescence ratio was 1.02.

Consider AGAAACCTCA, for which the switch fluorescence ratio is 1.28.

Take CTGGCTTATG: the switch fluorescence ratio is 0.958.

Regarding CGGTCTGTTT, the switch fluorescence ratio is 1.02.

In the case of GGGCCGCAGC, the switch fluorescence ratio worked out at 1.15.

As to CCCATATCAC, the switch fluorescence ratio came out at 1.19.

As for TTCTGCCTGG, the switch fluorescence ratio was 0.995.

CTCATCAAGT: the switch fluorescence ratio came to 1.03.

Turning to ACGTCGGTTG, the switch fluorescence ratio was found to be 1.04.

As for CTAAATGCTT, the switch fluorescence ratio turned out to be 0.963.

For GCGGCTGGTA, the switch fluorescence ratio was 1.

Turning to CGTTTATCCA, the switch fluorescence ratio came to 1.

In the case of TAATGTTGAA, the switch fluorescence ratio is 1.03.

On to GGGGACGTGT, for which the switch fluorescence ratio came to 0.993.

As for TTCAGTCATG, the switch fluorescence ratio stood at 0.992.

Regarding TGTGGAGGAG, the switch fluorescence ratio worked out at 0.962.

With CGCTCGGGGC, the switch fluorescence ratio amounted to 1.02.

With TGACTGCCC, the switch fluorescence ratio turned out to be 1.21.

For the sequence ACCCTCGTCC, the switch fluorescence ratio worked out at 1.13.

Regarding CAATCACGCA, the switch fluorescence ratio amounted to 1.19.

For AAGTTCAGCA, the switch fluorescence ratio is 1.03.

Take ACGGGACTG: the switch fluorescence ratio is 1.02.

For the sequence ACTTAGTCAT, the switch fluorescence ratio was 1.06.

For AATGGCGGAG, the switch fluorescence ratio came to 1.01.

In the case of TCTACTTCTC, the switch fluorescence ratio is 1.1.

As for GCGTGAACTA, the switch fluorescence ratio was determined as 1.04.

As to TTTAAATTCA, the switch fluorescence ratio is 1.03.

Consider TAGGCACTTG, for which the switch fluorescence ratio was found to be 1.04.

Take GCCCTCGCGC: the switch fluorescence ratio amounted to 1.06.

For the sequence AGTGTAGCTC, the switch fluorescence ratio was 1.05.

As to CCGGGAGTCT, the switch fluorescence ratio is 1.1.

With AGGCATAAAT, the switch fluorescence ratio was determined as 1.02.

Regarding AGACCATAAT, the switch fluorescence ratio is 1.01.

Turning to CTTGCGCAAC, the switch fluorescence ratio came to 3.72.

With GAGTTCTGCT, the switch fluorescence ratio was determined as 1.02.

On to GGATCTGACG, for which the switch fluorescence ratio worked out at 0.919.

For the sequence TCAGTACGAG, the switch fluorescence ratio came to 1.02.

For the sequence CATGTGACCG, the switch fluorescence ratio is 0.995.

Regarding GGTGGCGCGG, the switch fluorescence ratio amounted to 1.01.

Consider TATGAGATCT, for which the switch fluorescence ratio amounted to 1.

Regarding AGACGATTGC, the switch fluorescence ratio came out at 1.01.

Regarding GGCCGAGACG, the switch fluorescence ratio came to 0.953.

In the case of CTTGCTGCTT, the switch fluorescence ratio turned out to be 0.972.

For TTAGAGTAGG, the switch fluorescence ratio turned out to be 1.01.

TAGCCCGAGA: the switch fluorescence ratio turned out to be 1.01.

Consider CTGGAAGCAT, for which the switch fluorescence ratio is 1.54.

Take GGGGACTT: the switch fluorescence ratio worked out at 0.987.

In the case of TAAGTGATAA, the switch fluorescence ratio was found to be 1.01.

On to ATGGGGAAAA, for which the switch fluorescence ratio was 0.979.

Consider AGCGTAAT, for which the switch fluorescence ratio amounted to 1.07.

Turning to ACCGAAAAGT, the switch fluorescence ratio turned out to be 1.09.

AGGGTATTC: the switch fluorescence ratio came to 1.02.

Consider TAAGTCACCT, for which the switch fluorescence ratio turned out to be 1.2.

As to GGTCTTTATT, the switch fluorescence ratio was found to be 0.994.

In the case of GGAATTAATC, the switch fluorescence ratio is 1.02.

Regarding GCTTGCGGTT, the switch fluorescence ratio worked out at 0.988.

As for ACGAACGGTG, the switch fluorescence ratio came out at 1.48.

Turning to TGGACTTTCT, the switch fluorescence ratio amounted to 1.01.

ACTCTCGCTT: the switch fluorescence ratio was 2.39.

For CGCATCTTCG, the switch fluorescence ratio was found to be 1.09.

Turning to TGCGTAATTT, the switch fluorescence ratio came out at 1.02.

Consider TATACCTCGA, for which the switch fluorescence ratio came out at 1.

For the sequence GGTAATGCG, the switch fluorescence ratio stood at 0.991.

For GGATGTTCAG, the switch fluorescence ratio is 0.995.

With TTGCTAGACG, the switch fluorescence ratio is 1.06.

Turning to GCCGGCTTAC, the switch fluorescence ratio is 0.958.

For CTCAAATAAG, the switch fluorescence ratio worked out at 1.03.

With TATTACCTGG, the switch fluorescence ratio turned out to be 0.974.

In the case of GGCATAGTT, the switch fluorescence ratio was 1.

In the case of GCAGCGCTGG, the switch fluorescence ratio amounted to 0.977.

Take AGGGGATTGT: the switch fluorescence ratio was determined as 1.03.

As for CCGGGATATC, the switch fluorescence ratio is 2.75.
